Measured values: the supplement of paper PMC11417369
± gives the standard deviation of the averaged measurements. Some of the results follow.

Each sequence was assayed on PfAP2-G AP2 domain (GST-tagged) (assay: gcPBM binding intensity (ln(normalized median fluorescence intensity)); higher = stronger DNA binding).
Outline: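 Binding intensity is defined as the maximum Masliner-normalised natural-log median intensity across replicate spots for either probe orientation. It was measured on an Agilent 4 × 180k array of primer-extended double-stranded 36-bp intergenic genomic probes and negative controls, to which GST-tagged P. falciparum DNA-binding domains made in E. coli were applied for 1 h in 1× PBS with 1% milk, 0.2 mg/ml BSA, 0.5% salmon testes DNA and 0.03% Triton X-100. Detection was by Alexa488 anti-GST antibody and scanning at 488 nm.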

| Sequence | gcPBM binding intensity (ln) |
| --- | --- |
| TTATGTTTATACACTACACACATTATTCATAAAAAA [CACACA_site4637] | 10.3 ± 0.39 |
| ATATATATATAATATTGTACATAGTAGACATCACAC [XGTACX_site4649] | 11 ± 0.61 |
| TCTTATTATAAAAGGAGTACATCAATTAGATGTTCC [XGTACX_site8465] | 11.6 ± 1 |
| TTTGAGATGTGGTGTACACAAAATTAGGTACACATC [CACACA_site5773] | 12 ± 0.85 |
| CACAAATATATACATACACACATATATACACATATA [CACACA_site8024] | 10.11 ± 0.049 |
| AAAACGCAGTTTAATATACACACCAAAAAAAAAAAA [CACACA_site3036] | 9.84 ± 0.21 |
| TATGATAACCATAATTGTACAGAATGAAACGTAAAT [XGTACX_site1653] | 10.8 ± 0.42 |
| AGAAAAAAAAAAAAAAATAAAAAAATAAATAAATAA [GTGCAC_negctrl_site161] | 9.39 |
| ACTTAAATAATACATACACACATGTACTTACAGAAA [CACACA_site8458] | 11.3 ± 0.85 |
| TGTTTTTAAAAATATACACACACAGATATTATATAT [CACACA_site8162] | 10.1 ± 0.049 |
| TTTTATATTTATTTTTGTACATAAATGATCTCAAAT [XGTACX_site7768] | 11 ± 0.54 |
| AAATATTATAATAATTGTACTATATATACAGTTATT [XGTACX_site1963] | 10.7 ± 0.43 |
| TAAAATATGTCATGGGTGCTTCTTTTTATACCTATG [GTGCAC_site9888] | 10.25 ± 0.028 |
| AAAAAAAAAAAATTATGTACATATTATATATAATGG [XGTACX_site2885] | 11.2 ± 0.42 |
| ATATATATATATTTATGTACGCATTTATAGACGTAG [XGTACX_site6031] | 11.6 ± 1.1 |
| AAAAAAAAAAAAAAAGTGCATATATAAATATTGTAT [GTGCAC_site9459] | 10.2 ± 0.37 |
| TCATTAAATGTTTAGGTGCATACTTTAATTTTTAAT [GTGCAC_site9906] | 9.95 ± 0.17 |
| AATTGTTTTTTTTTCTTATTTTATGTTATACACACA [TGCATGCA_negctrl_site380] | 9.97 ± 0.042 |
| AAAAAAAAAAAAAACACATGCAGAAGAAAAAAAATA [TGCATGCA_site545] | 10.1 ± 0.4 |
| AAATGAACATATATGTGTACTTATATTTTTCTAAAT [XGTACX_site3388] | 11.4 ± 0.88 |
| ATATATTTTTCTTTACGTACGAAGCAAAATAACATT [XGTACX_site8145] | 10.9 ± 0.58 |
| CCATATATTTGGTATAGTACTTTTTATTTTATTTCA [XGTACX_site8933] | 11.1 ± 0.5 |
| TATTAATTTCGGGAAGTGCATTATGTTTATAGAATA | 10 ± 0.17 |

| Sequence | gcPBM binding intensity (ln) |
| --- | --- |
| ATTATATAAGTACACAAACAAGTATGAGATTCAAAA [GTGCAC_negctrl_site119] | 11.5 ± 1.2 |
| TGTTTTAAACTAATTTGTACATAGTTATTTATATTT [XGTACX_site7196] | 10.7 ± 0.26 |
| AATTCTTTATTATATGCACACGTACATATAATATAT [CACACA_site8621] | 11.4 ± 0.98 |
| AAAAAATGTTATAAAAGTACATAATTTATCTACCAT [XGTACX_site3035] | 11.2 ± 0.81 |
| TGGGAAAAAATATATGCACACCCCCCAAAAAAAAAA [CACACA_site8696] | 11.6 ± 0.81 |
| TAACTTTGGAGGAGCTGTACGATTATTTTGATCCTT [XGTACX_site2514] | 11.3 ± 1 |
| AAAAAATTTCAAATAACACACACTAATATAAATATG [CACACA_site6783] | 10.1 ± 0.15 |
| TTTAAAAAATAATATTGTACTATTCTCCCAATTTCT [XGTACX_site7079] | 10.9 ± 0.59 |
| TTTTTATATAATTTAACACACATTTCATATAAAAAA [CACACA_site3103] | 9.975 ± 0.092 |
| ATGTGAAAATAAGACACACTCAAAAGGTTTATATTA [CACACA_site4595] | 9.81 ± 0.057 |
| ATATACTGTATGAAAGCACACATACTTATTACTAAC [CACACA_site9384] | 10.03 ± 0.078 |
| AAAAAATGAAAAAACTGTACGCAATTTTGTTTTTAT [XGTACX_site2299] | 11.7 ± 1.2 |
| AAGTTTTTTTTTATCACACACAAAAAAAAAAATATA [CACACA_site1362] | 10.2 ± 0.41 |
| CTATATATAACCCATGTGCACTTTTTATGTACAATA | 11.5 ± 1 |
| TCTTTCCTTATTAAAACACACAAATACATTATTTAA [CACACA_site2147] | 9.98 ± 0.18 |
| CCTTTTTCTACTTTCTCACACATATTAAGAATTATA [CACACA_site5621] | 10.3 ± 0.25 |
| AAAAAAAAAAAAAAGTGTACCTTCAAAATAATATTG [XGTACX_site2844] | 11.3 ± 0.49 |
| ATAAATATAAAACACACACACATATTATATATATAT [CACACA_site3064] | 10.1 ± 0.29 |
| TTTCTTCTTCAATGTTGTACTTTTCTCTTTTCTTAA [XGTACX_site1017] | 11.4 ± 0.73 |
| GTAGGTGTTTTTGGTTGTACATATAAATATATATAC [XGTACX_site3380] | 11.3 ± 0.8 |
| TTTTTTTTTTTTAATTGTACTTATTAAAAAAAGCAA [XGTACX_site8713] | 11.1 ± 0.81 |
| GTTCATAAAAATTTTTGTACCCATAAAATATTCCTC [XGTACX_site8611] | 11.2 ± 0.65 |
